In the supplement of paper PMC3334620:
Over roughly 33,000 sequences, “E-score (-0.5 to 0.5)” has its median near -0.01; the highest 2% begin near 0.26. Some of the results follow.

target: Ste12 (UniProt P13574); experiment: PBM E-score (8-mer binding enrichment) (E-score (-0.5 to 0.5)); higher = stronger / more preferred TF binding; most listed sequences are background and not binding sites; conditions: protein concentration: 200 nM; construct: GST-DNA-binding domain
In short: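 Bound GST-tagged yeast transcription factors, applied at about 100-200 nM to double-stranded universal all-10-mer Agilent arrays, were detected with fluorescent anti-GST. Scans were normalised with masliner. A modified Wilcoxon-Mann-Whitney statistic, the E-score, was assigned to each ungapped eight-base word pooled with its reverse complement by the Universal PBM Analysis Suite.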

Sequence | PBM E-score
ACACCACA | -0.0192
CGTTGAGA | -0.0342
ACAACTTG | -0.0539
AGGCTTTC | -0.00566
CCTAATGA | 0.13
ACTATTGG | -0.0275
CTATGTCA | 0.018
AAGAACCT | -0.0241
CCCGAGCG | -0.146
ACGGCAAC | -0.0958
GATTATGC | 0.126
GATATAAA | 0.0834
ACACAGAA | -0.0541
AACCGGGT | 0.108
GCAGGTCA | 0.0148
CAGGTCAG | -0.0848
AATGCCAT | 0.1
AACCGGTT | 0.129
TCCGCCGA | 0.0254
AGAATTAA | 0.195
AAGCAGCC | -0.078
GGAAACGA | 0.275
AAATGGTG | 0.213
TCAACTGA | 0.0803
AGGATAGC | -0.0337

Sequence | PBM E-score
ACCGTCTG | -0.00201
ACACATGA | 0.179
ATAGCGTG | -0.0588
ATTGATTC | 0.23
CACCTTAC | -0.0153
AGGCTCTG | -0.0774
TAGAAGGA | -0.202
AACAGAAC | 0.201
TATCCAGA | 0.052
CCGGGCCG | 0.0193
ATGGAATG | -0.0794
AAAAGGGG | 0.00194
GGAAATAA | 0.284
ATCTTCGC | 0.0331
ATACAGTC | -0.0893
ACTGTATC | 0.102
AACGCACC | 0.103
AGCACCTA | -0.0986
CATGACGG | -0.0121
CGCCATCA | -0.114
GGGGTGTA | -0.142
CGGGTTAA | 0.0516
CGAGATAA | 0.211
ATAGGTGC | 0.00643
TCGTAGAA | -0.0518

Sequence | PBM E-score
AGGCATAG | -0.0107
CATTACAG | 0.112
CCCCGGCA | -0.0173
GTCACGTA | -0.151
CTCGCGAG | 0.219
AATGTTGT | 0.0307
AATAGATA | 0.223
CGGCTACA | 0.0056
GCTTTTCA | 0.0798
AGGCACTC | -0.157
CTCTCCCC | -0.0617
CGTCACGA | 0.127
AATCCGGG | 0.116
ACCCTGTC | -0.147
AGTAAGTA | 0.166
CCGGCGAA | 0.0568
CGGTCCCA | -0.197
GGGCACCA | -0.137
CGGTCGCA | -0.0691
GTTCCACA | 0.00282
CCGACACG | 0.0247
ATGGGTGA | -0.0464
CTCTCTAC | -0.147
CACGCCGA | -0.0909
CGCAGGCA | -0.062

Sequence | PBM E-score
ATACGTAA | 0.0648
CCAACCAG | -0.225
CAAATGGG | 0.119
ATGGTCTC | 0.11
ATCGAGCA | -0.00019
GGAGCCAC | -0.161
ACTATTAT | 0.113
ACTGGTTC | -0.0919
CCGCTGCG | -0.0389
ACAGTATA | 0.0891
GCTACTCC | -0.00343
CTGTAAAA | 0.219
GAAGCTAA | -0.0448
AGCTCGAT | 0.00368
GATCTGGA | 0.0761
AGGTTATG | 0.0846
CGCGCGTA | 0.0065
AACAAATC | 0.12
TGTCTCAA | 0.246
GTCTACCA | -0.188
GCTATCAA | 0.109
TCTGGCAA | 0.0559
AGTTCTCA | 0.0827
TATACCAA | 0.226
CGGCGAAG | -0.0536

Sequence | PBM E-score
GTATTGAA | 0.144
AAAAAATA | 0.267
GATTAACC | -0.117
AATGCAAA | 0.202
AATGTAAT | 0.187
AGAACGCC | -0.148
CCGCGTCC | 0.0467
GGCATGAA | 0.188
AATTCTCG | 0.237
CCCCCGTC | -0.246
ACACCCTG | -0.185
ATTCTTAG | -0.0832
ACAAACTA | 0.158
GGCATCTA | -0.0304
GGACGTCA | -0.0412
TCCACAAA | 0.14
ACTCAACT | 0.166
AATCCTAA | 0.234
AATATCAT | 0.118
AACGTCTG | -0.00956
AGACAGTA | -0.0507
AGGGGTAG | -0.0327
GATTTTCA | 0.115
GAAAGCTA | 0.017
AAGCAGAA | 0.109

Sequence | PBM E-score
AATTGGGC | -0.0357
CCTAGTGC | -0.0666
ACCCTACA | -0.063
CCGCAGGC | 0.033
CATTCGAC | 0.00565
ACGAGACT | -0.249
CTAGCAAA | 0.145
AAGGAGAT | -0.0682
AAGCCACT | -0.163
ACCCCTCC | 0.229
CGGGGCAC | -0.0935
CCGGAATC | -0.0232
CGTTCCCC | 0.00256
TGAATGCA | 0.174
CTACGGCC | -0.278
ACGTATGA | 0.138
GGTAACGA | 0.0224
GGAATCCA | -0.0608
ACGATTTA | 0.171
CAGTGAGC | -0.155
TCCTCCCA | -0.0691
CCGCCAGG | -0.206
CTCTAGCA | -0.0672
AATCTTGG | -0.0302
CGGCCGTA | -0.01

Sequence | PBM E-score
ACTGTAGC | -0.157
AAAAAAAA | 0.367
AGGAAGGG | -0.213
AGGTACAC | -0.144
TAGACCCA | 0.102
CCACGGGA | -0.126
GATTATCC | 0.0536
CACCCACA | -0.00321
ATTAGGGG | -0.0469
GCTACTAA | -0.0557
ATAGCATA | -0.011
GCCGGGGA | -0.0159
GGAGCCAA | -0.043
AACGCGGA | 0.102
CGCCCCCA | -0.079
ACCCGAAC | 0.241
TGCGACAA | 0.225
GAAGAAGC | -0.0161
AGGGGTTG | 0.105
ATGGTACA | 0.0633
AACTTTAT | 0.165
CAGTAATC | -0.144
AGACAAAG | -0.0458
ACGATCCA | -0.0639
TAATAACA | 0.155

Sequence | PBM E-score
GCCATGTA | -0.028
AGACGAGA | -0.00813
ATAGATCC | -0.0511
ACTGACAT | 0.0507
CCTCTAAC | 0.0258
GGCTAAAA | 0.233
ATTTTACG | 0.243
CGAATGAG | 0.0717
CCTAAGAA | -0.0255
GTCCCCCA | -0.0688
ACCGGATC | -0.0235
ATATTCAA | 0.251
GGACAAGA | -0.059
CCACGTAA | -0.143
GCAATGCC | -0.188
GATAGTCC | -0.174
AACGATAC | 0.104
GCATCGCA | 0.0839
AATTAGAT | 0.144
GCCGAAAC | 0.178
GTATTGGA | -0.133
GATTGAGA | 0.0757
AAGGTTGG | -0.0882
CTTAGTCA | -0.0476
AAGCTACG | -0.174

Sequence | PBM E-score
CCACTCCG | -0.0381
GACCGGGC | -0.122
CGAGACTC | -0.043
GAGGTCGC | -0.175
CTAAGTAG | -0.0366
AGTACCGG | -0.261
AGAATACC | 0.116
CATGCATG | -0.178
AGTGGCCA | -0.124
AACTCATT | -0.0883
TAGTTTAA | 0.171
ACCGCCGT | -0.0967
GCGTAGCA | 0.0572
TAACCCTA | -0.0788
AAAAGTGT | 0.0304
GGGACGTA | 0.0585
ACCCTGCA | 0.0598
CAACATGG | 0.0422
ATGGCACG | -0.0157
